Experimental data: patent publication US9234216B2, “Variant CBH I polypeptides” (BP Corporation North America Inc., priority 2011, dated 2016)

Tests used:
[1] = Melting temperature by Differential Scanning calorimetry; format: physicochemical; conditions: DSC, 500-700 μg/mL degassed sample
Procedure: (§1) Calculations for % residual activity: % Residual Activity=Activity heat challenged sample/Activity non-challenged sample (22 C). All residual activities calculated indepentyl from parent residual activity Melting Temperatures were determined by Differential Scanning calorimetry, using 500-700 μg/mL of degassed sample.

[2] = Thermotolerance: residual activity on MUL after 20 minute heat challenge; format: biochemical; conditions: residual activity on MUL at 22 C vs non-challenged sample; for % Residual Activity @ 60° C.: heat challenge 20 minutes at 60 C; for % Residual Activity @ 65° C.: heat challenge 20 minutes at 65 C; for % Residual Activity @ 70° C.: heat challenge 20 minutes at 70 C; for % Residual Activity @ 75° C.: heat challenge 20 minutes at 75 C; for % Residual Activity @ 80° C.: heat challenge 20 minutes at 80 C
Procedure: Samples heat challenged at 22 C, 60 C, 65 C, 70 C, 75 C, and 80 C for 20 minutes. After heat challenge, samples cooled on ice. Residual activity determined on MUL at 22 C.
as §1

B1: SEQ ID 65, 66: BD29555 CBH I variant: V121T (protein)
chain: MSALNSFNMYKSALILGSLLATAGAQQIGTYTAETHPSLSWSTCKSGGSCTTNSGAITLDANWRWVHGVNTSTNCYTGNTWNTAICDTDASCAQDCALDGADYSGTYGITTSGNSLRLNFTTGSNVGSRTYLMADNTHYQIFDLLNQEFTFTVDVSHLPCGLNGALYFVTMDADGGVSKYPNNKAGAQYGVGYCDSQCPRDLKFIAGQANVEGWTPSSNNANTGLGNHGACCAELDIWEANSISEALTPHPCDTPGLSVCTTDACGGTYSSDRYAGTCDPDGCDFNPYRLGVTDFYGSGKTVDTTKPITVVTQFVTDDGTSTGTLSEIRRYYVQNGVVIPQPSSKISGVSGNVINSDFCDAEISTFGETASFSKHGGLAKMGAGMEAGMVLVMSLWDDYSVNMLWLDSTYPTNATGTPGAARGSCPTTSGDPKTVESQSGSSYVTFSDIRVGPFNSTFSGGSSTGGSSTTTASGTTTTKASSTSTSSTSTGTGVAAHWGQCGGQGWTGPTTCASGTTCTVVNPYYSQCL
Melting Temperature [1]: 69.6 °C | % Residual Activity @ 60° C. [2]: 83% | % Residual Activity @ 65° C. [2]: 64% | % Residual Activity @ 70° C. [2]: 60% | % Residual Activity @ 75° C. [2]: 63% | % Residual Activity @ 80° C. [2]: 59%

B2: SEQ ID 79, 80: BD29555 CBH I variant: V401D (protein)
chain: MSALNSFNMYKSALILGSLLATAGAQQIGTYTAETHPSLSWSTCKSGGSCTTNSGAITLDANWRWVHGVNTSTNCYTGNTWNTAICDTDASCAQDCALDGADYSGTYGITTSGNSLRLNFVTGSNVGSRTYLMADNTHYQIFDLLNQEFTFTVDVSHLPCGLNGALYFVTMDADGGVSKYPNNKAGAQYGVGYCDSQCPRDLKFIAGQANVEGWTPSSNNANTGLGNHGACCAELDIWEANSISEALTPHPCDTPGLSVCTTDACGGTYSSDRYAGTCDPDGCDFNPYRLGVTDFYGSGKTVDTTKPITVVTQFVTDDGTSTGTLSEIRRYYVQNGVVIPQPSSKISGVSGNVINSDFCDAEISTFGETASFSKHGGLAKMGAGMEAGMVLVMSLWDDYSDNMLWLDSTYPTNATGTPGAARGSCPTTSGDPKTVESQSGSSYVTFSDIRVGPFNSTFSGGSSTGGSSTTTASGTTTTKASSTSTSSTSTGTGVAAHWGQCGGQGWTGPTTCASGTTCTVVNPYYSQCL
Melting Temperature [1]: 73.1 °C | % Residual Activity @ 60° C. [2]: 93% | % Residual Activity @ 65° C. [2]: 88% | % Residual Activity @ 70° C. [2]: 60% | % Residual Activity @ 75° C. [2]: 62% | % Residual Activity @ 80° C. [2]: 67%

B3: SEQ ID 73, 74: BD29555 CBH I variant: T35A, V401A (protein)
chain: MSALNSFNMYKSALILGSLLATAGAQQIGTYTAEAHPSLSWSTCKSGGSCTTNSGAITLDANWRWVHGVNTSTNCYTGNTWNTAICDTDASCAQDCALDGADYSGTYGITTSGNSLRLNFVTGSNVGSRTYLMADNTHYQIFDLLNQEFTFTVDVSHLPCGLNGALYFVTMDADGGVSKYPNNKAGAQYGVGYCDSQCPRDLKFIAGQANVEGWTPSSNNANTGLGNHGACCAELDIWEANSISEALTPHPCDTPGLSVCTTDACGGTYSSDRYAGTCDPDGCDFNPYRLGVTDFYGSGKTVDTTKPITVVTQFVTDDGTSTGTLSEIRRYYVQNGVVIPQPSSKISGVSGNVINSDFCDAEISTFGETASFSKHGGLAKMGAGMEAGMVLVMSLWDDYSANMLWLDSTYPTNATGTPGAARGSCPTTSGDPKTVESQSGSSYVTFSDIRVGPFNSTFSGGSSTGGSSTTTASGTTTTKASSTSTSSTSTGTGVAAHWGQCGGQGWTGPTTCASGTTCTVVNPYYSQCL
Melting Temperature [1]: 73.8 °C | % Residual Activity @ 60° C. [2]: 100% | % Residual Activity @ 65° C. [2]: 95% | % Residual Activity @ 70° C. [2]: 55% | % Residual Activity @ 75° C. [2]: 57% | % Residual Activity @ 80° C. [2]: 68%

B4: SEQ ID 71, 72: BD29555 CBH I variant: T268V (protein)
chain: MSALNSFNMYKSALILGSLLATAGAQQIGTYTAETHPSLSWSTCKSGGSCTTNSGAITLDANWRWVHGVNTSTNCYTGNTWNTAICDTDASCAQDCALDGADYSGTYGITTSGNSLRLNFVTGSNVGSRTYLMADNTHYQIFDLLNQEFTFTVDVSHLPCGLNGALYFVTMDADGGVSKYPNNKAGAQYGVGYCDSQCPRDLKFIAGQANVEGWTPSSNNANTGLGNHGACCAELDIWEANSISEALTPHPCDTPGLSVCTTDACGGVYSSDRYAGTCDPDGCDFNPYRLGVTDFYGSGKTVDTTKPITVVTQFVTDDGTSTGTLSEIRRYYVQNGVVIPQPSSKISGVSGNVINSDFCDAEISTFGETASFSKHGGLAKMGAGMEAGMVLVMSLWDDYSVNMLWLDSTYPTNATGTPGAARGSCPTTSGDPKTVESQSGSSYVTFSDIRVGPFNSTFSGGSSTGGSSTTTASGTTTTKASSTSTSSTSTGTGVAAHWGQCGGQGWTGPTTCASGTTCTVVNPYYSQCL
Melting Temperature [1]: 71.1 °C | % Residual Activity @ 60° C. [2]: 92% | % Residual Activity @ 65° C. [2]: 65% | % Residual Activity @ 70° C. [2]: 33% | % Residual Activity @ 75° C. [2]: 44% | % Residual Activity @ 80° C. [2]: 42%

B5: SEQ ID 67, 68: BD29555 CBH I variant: G113N (protein)
chain: MSALNSFNMYKSALILGSLLATAGAQQIGTYTAETHPSLSWSTCKSGGSCTTNSGAITLDANWRWVHGVNTSTNCYTGNTWNTAICDTDASCAQDCALDGADYSGTYGITTSNNSLRLNFVTGSNVGSRTYLMADNTHYQIFDLLNQEFTFTVDVSHLPCGLNGALYFVTMDADGGVSKYPNNKAGAQYGVGYCDSQCPRDLKFIAGQANVEGWTPSSNNANTGLGNHGACCAELDIWEANSISEALTPHPCDTPGLSVCTTDACGGTYSSDRYAGTCDPDGCDFNPYRLGVTDFYGSGKTVDTTKPITVVTQFVTDDGTSTGTLSEIRRYYVQNGVVIPQPSSKISGVSGNVINSDFCDAEISTFGETASFSKHGGLAKMGAGMEAGMVLVMSLWDDYSVNMLWLDSTYPTNATGTPGAARGSCPTTSGDPKTVESQSGSSYVTFSDIRVGPFNSTFSGGSSTGGSSTTTASGTTTTKASSTSTSSTSTGTGVAAHWGQCGGQGWTGPTTCASGTTCTVVNPYYSQCL
Melting Temperature [1]: 71.6 °C | % Residual Activity @ 60° C. [2]: 100% | % Residual Activity @ 65° C. [2]: 87% | % Residual Activity @ 70° C. [2]: 62% | % Residual Activity @ 75° C. [2]: 71% | % Residual Activity @ 80° C. [2]: 69%

B6: SEQ ID 77, 78: BD29555 CBH I variant: Y399D (protein)
chain: MSALNSFNMYKSALILGSLLATAGAQQIGTYTAETHPSLSWSTCKSGGSCTTNSGAITLDANWRWVHGVNTSTNCYTGNTWNTAICDTDASCAQDCALDGADYSGTYGITTSGNSLRLNFVTGSNVGSRTYLMADNTHYQIFDLLNQEFTFTVDVSHLPCGLNGALYFVTMDADGGVSKYPNNKAGAQYGVGYCDSQCPRDLKFIAGQANVEGWTPSSNNANTGLGNHGACCAELDIWEANSISEALTPHPCDTPGLSVCTTDACGGTYSSDRYAGTCDPDGCDFNPYRLGVTDFYGSGKTVDTTKPITVVTQFVTDDGTSTGTLSEIRRYYVQNGVVIPQPSSKISGVSGNVINSDFCDAEISTFGETASFSKHGGLAKMGAGMEAGMVLVMSLWDDDSVNMLWLDSTYPTNATGTPGAARGSCPTTSGDPKTVESQSGSSYVTFSDIRVGPFNSTFSGGSSTGGSSTTTASGTTTTKASSTSTSSTSTGTGVAAHWGQCGGQGWTGPTTCASGTTCTVVNPYYSQCL
Melting Temperature [1]: 68.7 °C | % Residual Activity @ 60° C. [2]: 91% | % Residual Activity @ 65° C. [2]: 43% | % Residual Activity @ 70° C. [2]: 52% | % Residual Activity @ 75° C. [2]: 56% | % Residual Activity @ 80° C. [2]: 58%

B7: SEQ ID 69, 70: BD29555 CBH I variant: L116T (protein)
chain: MSALNSFNMYKSALILGSLLATAGAQQIGTYTAETHPSLSWSTCKSGGSCTTNSGAITLDANWRWVHGVNTSTNCYTGNTWNTAICDTDASCAQDCALDGADYSGTYGITTSGNSTRLNFVTGSNVGSRTYLMADNTHYQIFDLLNQEFTFTVDVSHLPCGLNGALYFVTMDADGGVSKYPNNKAGAQYGVGYCDSQCPRDLKFIAGQANVEGWTPSSNNANTGLGNHGACCAELDIWEANSISEALTPHPCDTPGLSVCTTDACGGTYSSDRYAGTCDPDGCDFNPYRLGVTDFYGSGKTVDTTKPITVVTQFVTDDGTSTGTLSEIRRYYVQNGVVIPQPSSKISGVSGNVINSDFCDAEISTFGETASFSKHGGLAKMGAGMEAGMVLVMSLWDDYSVNMLWLDSTYPTNATGTPGAARGSCPTTSGDPKTVESQSGSSYVTFSDIRVGPFNSTFSGGSSTGGSSTTTASGTTTTKASSTSTSSTSTGTGVAAHWGQCGGQGWTGPTTCASGTTCTVVNPYYSQCL
Melting Temperature [1]: 71.2 °C | % Residual Activity @ 60° C. [2]: 107% | % Residual Activity @ 65° C. [2]: 89% | % Residual Activity @ 70° C. [2]: 72% | % Residual Activity @ 75° C. [2]: 71% | % Residual Activity @ 80° C. [2]: 74%

B8: SEQ ID 75, 76: BD29555 CBH I variant: V392T (protein)
chain: MSALNSFNMYKSALILGSLLATAGAQQIGTYTAETHPSLSWSTCKSGGSCTTNSGAITLDANWRWVHGVNTSTNCYTGNTWNTAICDTDASCAQDCALDGADYSGTYGITTSGNSLRLNFVTGSNVGSRTYLMADNTHYQIFDLLNQEFTFTVDVSHLPCGLNGALYFVTMDADGGVSKYPNNKAGAQYGVGYCDSQCPRDLKFIAGQANVEGWTPSSNNANTGLGNHGACCAELDIWEANSISEALTPHPCDTPGLSVCTTDACGGTYSSDRYAGTCDPDGCDFNPYRLGVTDFYGSGKTVDTTKPITVVTQFVTDDGTSTGTLSEIRRYYVQNGVVIPQPSSKISGVSGNVINSDFCDAEISTFGETASFSKHGGLAKMGAGMEAGMVLTMSLWDDYSVNMLWLDSTYPTNATGTPGAARGSCPTTSGDPKTVESQSGSSYVTFSDIRVGPFNSTFSGGSSTGGSSTTTASGTTTTKASSTSTSSTSTGTGVAAHWGQCGGQGWTGPTTCASGTTCTVVNPYYSQCL
Melting Temperature [1]: 70.7 °C | % Residual Activity @ 60° C. [2]: 94% | % Residual Activity @ 65° C. [2]: 70% | % Residual Activity @ 70° C. [2]: 56% | % Residual Activity @ 75° C. [2]: 54% | % Residual Activity @ 80° C. [2]: 59%
